Data from patent CN110156894A (JIANGSU NUOMAIBO BIOMEDICAL TECH CO LTD, dated 2019).

Biological target: T1, 重组TEM8蛋白(义翘神州) (human, UniProt Q9H6X2 33-321, limits assumed)
T1 construct: also called TEM8重组蛋白; recombinant TEM8 protein (Sino Biological)
T1 sequence (looked up): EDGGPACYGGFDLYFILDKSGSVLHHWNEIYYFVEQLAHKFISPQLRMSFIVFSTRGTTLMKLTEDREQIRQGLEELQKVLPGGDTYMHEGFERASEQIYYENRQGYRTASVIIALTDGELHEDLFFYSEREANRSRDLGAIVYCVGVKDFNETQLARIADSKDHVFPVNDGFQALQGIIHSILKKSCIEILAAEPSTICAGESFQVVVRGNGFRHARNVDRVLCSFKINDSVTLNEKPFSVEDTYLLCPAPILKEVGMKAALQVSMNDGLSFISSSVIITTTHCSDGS
Assay: ELISA on plate-bound TEM8 protein, method as in Example 2

EC50: 2.73 ng/mL
B1: HUT104-ADC (other)
heavy: EVQLQESGPGLVKPSETLSLTCTVTGDSISSDYWNWVRQAPGQRLEWMGYISYSGNTYTNPSLKSRITINRDTSKNQFSLQLNSVTPEDTAVYYCARYKTITSAFDVWGQGTTVTVSS[omitted - human IgG1 constant region]
light: EIVMTQSPATLSVSPGERATLSCRASQNIRDFLHWYQQKPGQAPRLLIYYASQSISGIPARFSGSGSGTDFTLTISSLEPEDFAVYYCQNGHSFPYTFGGGTKVEIKRTVAAPSVFIFPPSDEQLKSGTASVVCLLNNFYPREAKVQWKVDNALQSGNSQESVTEQDSKDSTYSLSSTLTLSKADYEKHKVYACEVTHQGLSSPVTKSFNRGEC
modifications: vcMMAE (VC linker + MMAE) joined through maleimide to the interchain cysteine thiols exposed by reduction; positions and number not stated
notes: also called TEM8抗体药物偶联物; HUT104-vcMMAE
